{"source": "the supplement of paper PMC8728848", "experiment_in_all_cases": "glycan array binding signal (z-score within array); higher = stronger binding", "settings_in_all_cases": "glycan notation: IUPAC condensed, linker removed", "key": {"Fuc(a1-4)GlcNAc": {"biological_target": "Fuc(a1-4)GlcNAc", "how_it_was_run": "(§1)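 Glycan array data came from 3228 arrays in the Consortium for Functional Glycomics database, and only arrays with an available protein sequence were kept. Glycan names were put into IUPAC-condensed notation, and columns mapping to the same glycan were averaged. The binding signal is a within-array Z-score, averaged across arrays of one protein sequence run at different concentrations or buffers and across linkers. A negative Z-score can be read as non-binding.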"}, "Fuc(b1-3)GlcNAc": {"biological_target": "Fuc(b1-3)GlcNAc", "how_it_was_run": "as §1"}, "Gal(a1-2)Gal": {"biological_target": "Gal(a1-2)Gal", "how_it_was_run": "as §1"}, "Gal(a1-3)Gal": {"biological_target": "Gal(a1-3)Gal", "how_it_was_run": "as §1"}, "Gal(a1-3)Gal(b1-3)GlcNAc": {"biological_target": "Gal(a1-3)Gal(b1-3)GlcNAc", "how_it_was_run": "as §1"}, "[1]": {"biological_target": "Gal(a1-3)Gal(b1-3)GlcNAc(b1-2)Man", "how_it_was_run": "as §1"}, "[2]": {"biological_target": "Gal(a1-3)Gal(b1-3)GlcNAc(b1-2)Man(a1-3)[Gal(a1-3)Gal(b1-3)GlcNAc(b1-2)Man(a1-6)]Man(b1-4)GlcNAc(b1-4)GlcNAc", "how_it_was_run": "as §1"}, "[3]": {"biological_target": "Gal(a1-3)Gal(b1-3)GlcNAc(b1-3)GalNAc", "how_it_was_run": "as §1"}, "[4]": {"biological_target": "Gal(a1-3)Gal(b1-3)GlcNAc(b1-6)GalNAc", "how_it_was_run": "as §1"}, "[5]": {"biological_target": "Gal(a1-3)Gal(b1-3)[Fuc(a1-4)]GlcNAc(b1-2)Man(a1-3)[Gal(a1-3)Gal(b1-3)[Fuc(a1-4)]GlcNAc(b1-2)Man(a1-6)]Man(b1-4)GlcNAc(b1-4)GlcNAc", "how_it_was_run": "as §1"}, "Gal(a1-3)Gal(b1-4)Glc": {"biological_target": "Gal(a1-3)Gal(b1-4)Glc", "how_it_was_run": "as §1"}, "Gal(a1-3)Gal(b1-4)GlcNAc": {"biological_target": "Gal(a1-3)Gal(b1-4)GlcNAc", "how_it_was_run": "as §1"}, "[6]": {"biological_target": "Gal(a1-3)Gal(b1-4)GlcNAc(b1-2)Man", "how_it_was_run": "as §1"}, "[7]": {"biological_target": "Gal(a1-3)Gal(b1-4)GlcNAc(b1-2)Man(a1-3)[Gal(a1-3)Gal(b1-4)GlcNAc(b1-2)Man(a1-6)]Man(b1-4)GlcNAc(b1-4)GlcNAc", "how_it_was_run": "as §1"}, "[8]": {"biological_target": "Gal(a1-3)Gal(b1-4)GlcNAc(b1-3)GalNAc", "how_it_was_run": "as §1"}, "[9]": {"biological_target": "Gal(a1-3)Gal(b1-4)GlcNAc(b1-6)GalNAc", "how_it_was_run": "as §1"}, "[10]": {"biological_target": "Gal(a1-3)Gal(b1-4)[Fuc(a1-3)]GlcNAc", "how_it_was_run": "as §1"}, "[11]": {"biological_target": "Gal(a1-3)Gal(b1-4)[Fuc(a1-3)]GlcNAc(b1-2)Man(a1-3)[Gal(a1-3)Gal(b1-4)[Fuc(a1-3)]GlcNAc(b1-2)Man(a1-6)]Man(b1-4)GlcNAc(b1-4)GlcNAc", "how_it_was_run": "as §1"}, "Gal(a1-3)GalNAc": {"biological_target": "Gal(a1-3)GalNAc", "how_it_was_run": "as §1"}, "[12]": {"biological_target": "Gal(a1-3)[Gal(a1-4)]Gal(b1-4)GlcNAc", "how_it_was_run": "as §1"}, "[13]": {"biological_target": "Gal(a1-4)Gal(b1-3)GlcNAc(b1-2)Man(a1-3)[Gal(a1-4)Gal(b1-3)GlcNAc(b1-2)Man(a1-6)]Man(b1-4)GlcNAc(b1-4)GlcNAc", "how_it_was_run": "as §1"}, "Gal(a1-4)Gal(b1-4)Glc": {"biological_target": "Gal(a1-4)Gal(b1-4)Glc", "how_it_was_run": "as §1"}, "Gal(a1-4)Gal(b1-4)GlcNAc": {"biological_target": "Gal(a1-4)Gal(b1-4)GlcNAc", "how_it_was_run": "as §1"}, "[14]": {"biological_target": "Gal(a1-4)Gal(b1-4)GlcNAc(b1-2)Man(a1-3)[Gal(a1-4)Gal(b1-4)GlcNAc(b1-2)Man(a1-6)]Man(b1-4)GlcNAc(b1-4)GlcNAc", "how_it_was_run": "as §1"}, "[15]": {"biological_target": "Gal(a1-4)Gal(b1-4)GlcNAc(b1-3)Gal(b1-4)Glc", "how_it_was_run": "as §1"}, "Gal(a1-4)GlcNAc": {"biological_target": "Gal(a1-4)GlcNAc", "how_it_was_run": "as §1"}, "Gal(a1-6)Glc": {"biological_target": "Gal(a1-6)Glc", "how_it_was_run": "as §1"}, "Gal(b1-2)Gal": {"biological_target": "Gal(b1-2)Gal", "how_it_was_run": "as §1"}, "Gal(b1-3)Gal": {"biological_target": "Gal(b1-3)Gal", "how_it_was_run": "as §1"}, "Gal(b1-3)Gal(b1-4)GlcNAc": {"biological_target": "Gal(b1-3)Gal(b1-4)GlcNAc", "how_it_was_run": "as §1"}, "Gal(b1-3)GalNAc": {"biological_target": "Gal(b1-3)GalNAc", "how_it_was_run": "as §1"}, "[16]": {"biological_target": "Gal(b1-3)GalNAc(a1-3)[Fuc(a1-2)]Gal(b1-4)Glc", "how_it_was_run": "as §1"}, "[17]": {"biological_target": "Gal(b1-3)GalNAc(a1-3)[Fuc(a1-2)]Gal(b1-4)GlcNAc", "how_it_was_run": "as §1"}, "Gal(b1-3)GalNAc(b1-3)Gal": {"biological_target": "Gal(b1-3)GalNAc(b1-3)Gal", "how_it_was_run": "as §1"}, "[18]": {"biological_target": "Gal(b1-3)GalNAc(b1-3)Gal(a1-4)Gal(b1-4)Glc", "how_it_was_run": "as §1"}, "[19]": {"biological_target": "Gal(b1-3)GalNAc(b1-4)Gal(b1-4)Glc", "how_it_was_run": "as §1"}, "[20]": {"biological_target": "Gal(b1-3)GalNAc(b1-4)[Neu5Ac(a2-3)]Gal(b1-4)Glc", "how_it_was_run": "as §1"}, "Gal(b1-3)GlcNAc": {"biological_target": "Gal(b1-3)GlcNAc", "how_it_was_run": "as §1"}}, "note": "This is one part of the list.", "data": [{"binder": "MAA (Maackia amurensis), P0DKL3 (protein) MATSNSKPTQVLLATFLTFFFLLLNNVNSSDELSFTINNFVPNEADLLFQGEASVSSTGVLQLTRVENGQPQKYSVGRALYAAPVRIWDNTTGSVASFSTSFTFVVKAPNPDITSDGLAFYLAPPDSQIPSGSVSKYLGLFNNSNSDSSNQIVAVELDTYFAHSYDPWDPNYRHIGIDVNGIESIKTVQWDWINGGVAFATITYLAPNKTLIASLVYPSNQTTFSVAASVDLKEILPEWVRVGFSAATGYPTEVETHDVLSWSFTSTLEANCDAATENNVHIARYTA", "values": [{"measurement": "glycan array binding signal (z-score)", "setting": "Fuc(a1-4)GlcNAc", "result": -0.241}, {"measurement": "glycan array binding signal (z-score)", "setting": "Fuc(b1-3)GlcNAc", "result": -0.22}, {"measurement": "glycan array binding signal (z-score)", "setting": "Gal(a1-2)Gal", "result": -0.169}, {"measurement": "glycan array binding signal (z-score)", "setting": "Gal(a1-3)Gal", "result": -0.181}, {"measurement": "glycan array binding signal (z-score)", "setting": "Gal(a1-3)Gal(b1-3)GlcNAc", "result": -0.151}, {"measurement": "glycan array binding signal (z-score)", "setting": "[1]", "result": -0.268}, {"measurement": "glycan array binding signal (z-score)", "setting": "[2]", "result": 0.47}, {"measurement": "glycan array binding signal (z-score)", "setting": "[3]", "result": -0.218}, {"measurement": "glycan array binding signal (z-score)", "setting": "[4]", "result": -0.237}, {"measurement": "glycan array binding signal (z-score)", "setting": "[5]", "result": 0.162}, {"measurement": "glycan array binding signal (z-score)", "setting": "Gal(a1-3)Gal(b1-4)Glc", "result": -0.137}, {"measurement": "glycan array binding signal (z-score)", "setting": "Gal(a1-3)Gal(b1-4)GlcNAc", "result": -0.243}, {"measurement": "glycan array binding signal (z-score)", "setting": "[6]", "result": -0.27}, {"measurement": "glycan array binding signal (z-score)", "setting": "[7]", "result": -0.055}, {"measurement": "glycan array binding signal (z-score)", "setting": "[8]", "result": -0.205}, {"measurement": "glycan array binding signal (z-score)", "setting": "[9]", "result": -0.272}, {"measurement": "glycan array binding signal (z-score)", "setting": "[10]", "result": -0.19}, {"measurement": "glycan array binding signal (z-score)", "setting": "[11]", "result": -0.367}, {"measurement": "glycan array binding signal (z-score)", "setting": "Gal(a1-3)GalNAc", "result": -0.196}, {"measurement": "glycan array binding signal (z-score)", "setting": "[12]", "result": -0.072}, {"measurement": "glycan array binding signal (z-score)", "setting": "[13]", "result": -0.144}, {"measurement": "glycan array binding signal (z-score)", "setting": "Gal(a1-4)Gal(b1-4)Glc", "result": -0.167}, {"measurement": "glycan array binding signal (z-score)", "setting": "Gal(a1-4)Gal(b1-4)GlcNAc", "result": -0.213}, {"measurement": "glycan array binding signal (z-score)", "setting": "[14]", "result": -0.119}, {"measurement": "glycan array binding signal (z-score)", "setting": "[15]", "result": -0.206}, {"measurement": "glycan array binding signal (z-score)", "setting": "Gal(a1-4)GlcNAc", "result": -0.205}, {"measurement": "glycan array binding signal (z-score)", "setting": "Gal(a1-6)Glc", "result": -0.166}, {"measurement": "glycan array binding signal (z-score)", "setting": "Gal(b1-2)Gal", "result": -0.204}, {"measurement": "glycan array binding signal (z-score)", "setting": "Gal(b1-3)Gal", "result": -0.233}, {"measurement": "glycan array binding signal (z-score)", "setting": "Gal(b1-3)Gal(b1-4)GlcNAc", "result": -0.108}, {"measurement": "glycan array binding signal (z-score)", "setting": "Gal(b1-3)GalNAc", "result": -0.227}, {"measurement": "glycan array binding signal (z-score)", "setting": "[16]", "result": -0.24}, {"measurement": "glycan array binding signal (z-score)", "setting": "[17]", "result": -0.27}, {"measurement": "glycan array binding signal (z-score)", "setting": "Gal(b1-3)GalNAc(b1-3)Gal", "result": -0.264}, {"measurement": "glycan array binding signal (z-score)", "setting": "[18]", "result": -0.118}, {"measurement": "glycan array binding signal (z-score)", "setting": "[19]", "result": -0.224}, {"measurement": "glycan array binding signal (z-score)", "setting": "[20]", "result": -0.257}, {"measurement": "glycan array binding signal (z-score)", "setting": "Gal(b1-3)GlcNAc", "result": -0.198}]}]}
